Paper PMC4336329 (PLoS ONE, 2015)
Hit rate of the full screen: of about 310,000 compounds, about 2,200 (0.71%) showed an effect of 50% or more. Effects have a minus sign here. The list shows a part of the results.

Molecular target: human ether-à-go-go-related gene (hERG) potassium channel (human, UniProt Q12809)
Assay: primary screen, population patch clamp on CHO cells stably expressing hERG

Sequence of human ether-à-go-go-related gene (hERG) potassium channel (Q12809 whole entry, looked up): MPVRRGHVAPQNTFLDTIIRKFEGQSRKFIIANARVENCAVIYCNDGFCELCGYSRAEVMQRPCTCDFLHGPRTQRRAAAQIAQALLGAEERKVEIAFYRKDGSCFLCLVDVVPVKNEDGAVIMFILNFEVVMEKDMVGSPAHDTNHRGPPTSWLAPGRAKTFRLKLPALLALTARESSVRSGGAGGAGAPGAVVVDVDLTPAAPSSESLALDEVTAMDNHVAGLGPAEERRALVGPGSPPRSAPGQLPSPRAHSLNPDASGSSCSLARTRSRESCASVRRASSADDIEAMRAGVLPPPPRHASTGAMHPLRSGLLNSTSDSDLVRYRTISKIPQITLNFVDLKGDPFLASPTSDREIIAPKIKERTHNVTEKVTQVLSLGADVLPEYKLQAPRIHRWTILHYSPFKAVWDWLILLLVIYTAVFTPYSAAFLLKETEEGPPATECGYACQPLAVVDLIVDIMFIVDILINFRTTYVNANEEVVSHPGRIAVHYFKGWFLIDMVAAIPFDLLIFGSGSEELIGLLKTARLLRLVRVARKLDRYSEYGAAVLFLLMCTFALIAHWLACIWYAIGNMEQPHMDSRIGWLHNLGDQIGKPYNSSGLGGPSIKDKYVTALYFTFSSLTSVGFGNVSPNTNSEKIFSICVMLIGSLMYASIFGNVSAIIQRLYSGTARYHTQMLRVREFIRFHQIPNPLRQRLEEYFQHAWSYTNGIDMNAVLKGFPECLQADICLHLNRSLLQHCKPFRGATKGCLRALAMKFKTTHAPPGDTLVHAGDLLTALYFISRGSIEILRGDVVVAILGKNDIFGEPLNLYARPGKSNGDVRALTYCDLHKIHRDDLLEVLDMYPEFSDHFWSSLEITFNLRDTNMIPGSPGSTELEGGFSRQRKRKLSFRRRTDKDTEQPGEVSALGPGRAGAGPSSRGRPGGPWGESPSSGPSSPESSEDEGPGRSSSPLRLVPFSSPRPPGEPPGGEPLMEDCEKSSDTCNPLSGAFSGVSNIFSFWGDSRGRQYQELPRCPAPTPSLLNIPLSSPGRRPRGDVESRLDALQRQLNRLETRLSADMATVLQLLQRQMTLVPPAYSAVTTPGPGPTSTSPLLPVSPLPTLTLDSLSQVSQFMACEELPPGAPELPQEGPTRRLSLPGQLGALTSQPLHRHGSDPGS

Row | Compound | hERG current change (%, negative = inhibition) at 1uM
1 | O=C(CN(Cc1ccccc1)C(=O)CNS(=O)(=O)c1ccccc1)NCC1CCCO1 (stereo not shown) | 1.8%
2 | Nc1nc(NC(=O)c2ccccc2Cl)nn1-c1ccccc1 | 6.18%
3 | CCOC(=O)C(CC)/C(C)=N/NC(=O)c1ccccc1[N+](=O)[O-] (stereo not shown) | -7.21%
4 | C=CCC(COCc1ccccc1)NS(=O)(=O)c1ccccc1Br (stereo not shown) | 6.92%
5 | CCOc1ccc(S(=O)(=O)NCCC(=O)N2CC(C)CC(C)C2)cc1 (stereo not shown) | 2.38%
6 | CC(NC(=O)/C(C#N)=C1\N=C(NC(=O)c2cccs2)c2ccccc21)c1ccccc1 (stereo not shown) | 13.6%
7 | Cc1cnc(CN(C)C(=O)CC2C(=O)NCCN2CCCc2ccccc2)[nH]1 (stereo not shown) | 8.18%
8 | CC(Nc1cccnc1)=C(C#N)C#N | 5.19%
9 | Cc1cccc([N+](=O)[O-])c1C(=O)O | 11.2%
10 | COc1ccc(-c2cc3nc(C)c(CCC(=O)NCc4ccc(F)cc4)c(C)n3n2)c(OC)c1 | -32.7%
11 | COc1cc(NS(=O)(=O)c2ccc(NC(=O)C3CCCO3)cc2)nc(OC)n1 (stereo not shown) | -1.04%
12 | COc1ccc(CNC(=O)N2CCc3ccccc3C2)cc1Cl | 15.5%
13 | Cc1ccc(C(=O)Nc2ccccc2)cc1S(=O)(=O)Nc1ccc(Cl)cn1 | 9.06%
14 | N#Cc1ccccc1NC(=S)NC(=O)C1CCC1 | 8.91%
15 | O=C(CSc1nc(N2CCOCC2)nc(N2CCOCC2)n1)Nc1ccc([N+](=O)[O-])cc1 | -4.4%
16 | CCCCNc1nc(-c2ccccc2)nc(-n2ccnc2)n1 | 14%
17 | CCOc1ccc(-n2c(=O)[nH]c3sc4c(c3c2=O)CCCC4)cc1 | 12.6%
18 | Cl.O=C(Nc1nnc(CCN2CCCCC2)s1)c1ccccc1 | 15.5%
19 | O=C(Cc1ccc(Br)cc1)N1CCN(C(=O)c2ccco2)CC1 | -7.27%
20 | COCCNC(=O)c1cccc(S(=O)(=O)N2CC3(C)CC2CC(C)(C)C3)c1 (stereo not shown) | 12%
21 | Cn1cccc1/C=N/N1CCN(Cc2ccc(Cl)cc2)CC1 | 3.9%
22 | CCCCc1ccc(NC(=S)NCCc2ccc(F)cc2)cc1 | 16%
23 | Cc1ccc(/C=C/C(=O)NC(=S)Nc2ccccc2C(=O)NC2CCCCC2)cc1 | 14.3%
24 | O=C(CN1C(=O)NC2(CCCC2)C1=O)OCc1ccc(Br)cc1 | 9.07%
25 | Cc1ccc(S(C)(=O)=O)cc1C(=O)OCC(=O)N(Cc1ccccc1)Cc1ccccc1 | 7.49%
26 | CC1CC1C(=O)Nc1cc(S(=O)(=O)N2CCOCC2)ccc1N1CCCC1 (stereo not shown) | 4.55%
27 | N#Cc1cn(OCc2ccccc2)c(=O)[nH]c1=O | 10.9%
28 | CCCCCCN(C(=O)CCCCCN1C(=O)NC(c2ccc(-c3ccccc3)cc2)C(C(=O)OCc2ccccc2)=C1C)C(C(=O)NCCCC)c1ccc(OCC(=O)OC)cc1 (stereo not shown) | 16.7%

Row | Compound | hERG current change (%, negative = inhibition) at 1uM
29 | COc1ccc(-c2cc(C(=O)NCC3CCCO3)c3cc(C(C)C)ccc3n2)cc1 (stereo not shown) | 16%
30 | COCCNc1ncnc2c1cnn2-c1ccc(Cl)cc1 | -16.2%
31 | COc1ccccc1C(=O)N(CCN(C)C)c1nc2cc(C)cc(C)c2s1.Cl | -39.8%
32 | CC(Oc1cc2oc(=O)c3c(c2cc1Cl)CCC3)C(=O)NCCCn1ccnc1 (stereo not shown) | 7.41%
33 | Cc1cccn2c(=O)c3cc(C(=O)NCC4CCCO4)c(=N)n(CCc4ccccc4)c3nc12 (stereo not shown) | -84.4%
34 | COc1ccc(/C=C/C(=O)c2ccc[nH]2)c(OC)c1OC | 4.5%
35 | Cc1cccn2c(=O)c3cc(C(=O)NCC4CCCO4)c(=N)n(C4CCCCC4)c3nc12 (stereo not shown) | -83.7%
36 | Br.Fc1cccc(CNCC2CCCO2)c1 (stereo not shown) | 13.4%
37 | O=C(COC(=O)COc1ccccc1)NC12CC3CC(CC(C3)C1)C2 | 3.72%
38 | Cc1nc2ccc(S(=O)(=O)NCC(=O)NC(C)c3ccccc3)cc2s1 (stereo not shown) | 9.38%
39 | Clc1ccc(-c2ccc(-c3nn4c(-c5ccco5)nnc4s3)o2)cc1 | 6.98%
40 | CCCn1c(CCC(=O)Nc2ccccc2Cc2ccccc2)nc2cc(S(=O)(=O)N3CCOCC3)ccc21 | 1.03%
41 | CCc1nnc(NS(=O)(=O)c2ccc(NC(=O)/C=C/c3ccccc3Cl)cc2)s1 | -0.157%
42 | Cl.O=C1CC2(CCCC2)CC(=O)N1CCCCN1CCN(c2ncccn2)CC1 | -10.5%
43 | Cc1cccc(N(CC(=O)NC2CCCC2)C(=O)c2csnn2)c1C | 16.1%
44 | OC(CNCC1COc2ccccc2O1)COc1ccccc1F (stereo not shown) | 16.9%
45 | Cc1cc(C)c(NC(=O)c2ccc(S(=O)(=O)N3CCOCC3)cc2)c(C)c1 | 10.4%
46 | CCOC(=O)C1CCCN(Cc2cccc(Cl)c2)C1 (stereo not shown) | 13.2%
47 | O=C(O)CN(c1ccc2c(c1)OCCO2)S(=O)(=O)c1ccccc1 | 13.3%
48 | Cc1c(NC(=O)CSc2ccc(Cl)cc2)cccc1-c1nc2cc(Cl)ccc2o1 | 7.19%
49 | CCOC(=O)N1CCN(CC(O)COc2ccc(-c3ccccc3)cc2)CC1.Cl (stereo not shown) | 5.91%
50 | O=C(Nc1ccc2c(c1)CCC2)c1cc(S(=O)(=O)N2CCN(c3ccccc3)CC2)ccc1Cl | 4.32%
51 | Cc1ccc(CS(=O)(=O)Cc2ccc(C(=O)NCc3ccco3)o2)cc1 | -4.57%
52 | Cc1ccc(NC(=O)c2cc(NC(=O)/C=C\C(=O)O)ccc2N2CCCCC2)cc1 | 8.13%
53 | CCc1ccccc1NC(=S)N(CCN(C)C)Cc1cccs1 | 5.15%
54 | Cc1ccc(OCc2nnc(SCC(=O)O)n2N)cc1 | 19.5%
55 | Cc1cc(OCC(=O)NNC(=S)NCC2CCCO2)cc(C)c1Cl (stereo not shown) | 15%
